According to PMC4918326:
Numbering of substitutions follows the chain as printed. No constants are given. Whether binding was seen depends on the method and setting. For part of these data: In cells and extracts the contact can be indirect. Some entries that bind do so weakly or less than the wild type. For part of these data: Where a sequence is shown, tags or fusion partners need not be part of it.

The chains behind the UniProt entries cited, without tags or fusion partners. Where a name states a change or a piece, a line headed by the entry shows the natural chain unless it says otherwise. A line that says so, or that is headed by a name, gives the form on record, which may keep a tag or linker.
UniProt Q7Z434: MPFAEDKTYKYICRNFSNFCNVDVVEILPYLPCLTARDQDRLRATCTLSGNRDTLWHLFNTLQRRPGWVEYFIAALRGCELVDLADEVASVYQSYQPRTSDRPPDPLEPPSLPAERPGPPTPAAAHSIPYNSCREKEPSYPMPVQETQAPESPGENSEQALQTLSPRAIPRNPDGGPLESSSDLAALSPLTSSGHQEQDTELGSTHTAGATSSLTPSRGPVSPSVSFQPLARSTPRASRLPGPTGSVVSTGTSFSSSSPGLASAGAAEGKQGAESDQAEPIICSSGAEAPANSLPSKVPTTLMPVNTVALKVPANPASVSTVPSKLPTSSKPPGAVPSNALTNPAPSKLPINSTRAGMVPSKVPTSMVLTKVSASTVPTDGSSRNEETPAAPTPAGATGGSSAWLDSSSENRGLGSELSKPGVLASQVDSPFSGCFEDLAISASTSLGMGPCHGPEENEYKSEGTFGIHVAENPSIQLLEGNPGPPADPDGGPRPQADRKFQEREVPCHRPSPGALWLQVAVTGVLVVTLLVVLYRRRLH
Flag-MAVS^ΔCARD (Q7Z434, form named): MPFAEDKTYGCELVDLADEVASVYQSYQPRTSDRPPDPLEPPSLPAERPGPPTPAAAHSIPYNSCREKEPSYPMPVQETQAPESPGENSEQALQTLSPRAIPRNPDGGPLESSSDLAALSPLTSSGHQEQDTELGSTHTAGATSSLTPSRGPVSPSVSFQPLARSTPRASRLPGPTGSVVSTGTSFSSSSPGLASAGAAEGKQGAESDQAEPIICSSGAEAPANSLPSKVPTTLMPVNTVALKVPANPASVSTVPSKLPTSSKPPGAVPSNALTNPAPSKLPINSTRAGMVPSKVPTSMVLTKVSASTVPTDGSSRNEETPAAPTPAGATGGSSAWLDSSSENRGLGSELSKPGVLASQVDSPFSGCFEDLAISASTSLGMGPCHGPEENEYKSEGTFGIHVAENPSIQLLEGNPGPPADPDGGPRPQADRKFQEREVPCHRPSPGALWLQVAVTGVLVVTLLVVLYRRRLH

Experiments:
Myc-MARCH5^WT [1] = molecular target: T1, Myc-MARCH5^WT (UniProt Q9NX47); test: co-IP; HEK293T cells co-transfected with Myc-MARCH5 and Flag-MAVS plasmids for 36 h; lysis and washes in RIPA buffer; immunoblotting with indicated antibodies
T1 sequence: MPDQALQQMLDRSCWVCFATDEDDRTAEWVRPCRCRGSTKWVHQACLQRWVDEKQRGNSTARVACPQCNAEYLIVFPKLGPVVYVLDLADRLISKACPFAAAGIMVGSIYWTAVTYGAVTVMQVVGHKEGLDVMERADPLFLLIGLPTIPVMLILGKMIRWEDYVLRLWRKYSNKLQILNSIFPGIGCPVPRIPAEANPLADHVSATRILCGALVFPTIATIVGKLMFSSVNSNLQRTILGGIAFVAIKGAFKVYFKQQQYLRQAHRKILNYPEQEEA

[2] = molecular target: T2, endogenous MARCH5 (human (endogenous in HEK293T)) (UniProt Q9NX47); test: co-IP
T2 sequence: T1 sequence

Myc-MARCH5^WT [3] = molecular target: T1, Myc-MARCH5^WT; test: co-IP
[4] = molecular target: T3, MARCH5 (bait of the streptavidin-affinity purification) (UniProt Q9NX47); test: streptavidin-affinity purification; preliminary data, not shown; streptavidin-affinity purification of MARCH5
T3 sequence: T1 sequence

[5] = molecular target: T4, GST-conjugated MARCH5 wild-type protein (UniProt Q9NX47); test: pull-down; GST-conjugated MARCH5 wild-type protein purified from insect, incubated with cell lysates treated with/without poly(I:C); only the target purified
T4 sequence: T1 sequence

[6] = molecular target: T5, GST-MARCH5 cytosolic loop (AAs 160–208) (UniProt Q9NX47); test: pull-down; only the target purified
T5 sequence: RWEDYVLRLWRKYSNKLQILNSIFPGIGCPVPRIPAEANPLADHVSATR

[7] = molecular target: T6, GST-MARCH5 C terminus (AAs 259–278) (UniProt Q9NX47); test: pull-down; only the target purified
T6 sequence: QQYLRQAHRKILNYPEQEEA

Myc-MARCH5^H43W = molecular target: T7, Myc-MARCH5^H43W (UniProt Q9NX47); test: co-IP; HEK293T cells co-transfected with Myc-MARCH5 and Flag-MAVS plasmids for 36 h; lysis and washes in RIPA buffer; immunoblotting with indicated antibodies
T7 sequence: T1 sequence with H43W

For “Flag-MAVS^ΔCARD (from UniProt Q7Z434 1-540)”, the binding (Myc-MARCH5^WT [1]) was “no binding”.

In the case of “endogenous MAVS (from UniProt Q7Z434 1-540)”, the binding [2] is reported as “binds” and the binding (Myc-MARCH5^WT [3]) is reported as “binds”.

“MAVS (found in the streptavidin-affinity purification of MARCH5) (from UniProt Q7Z434 1-540)” was tested, and the binding [4] was “binds”.

With “MAVS in cell lysates treated with/without poly(I:C) (GST pull-down, Fig. 5e) (from UniProt Q7Z434 1-540)” the binding [5] was “binds”.

“Flag-MAVS^WT (from UniProt Q7Z434 1-540)” was tested, and the binding [6] was “no binding”, the binding [7] was “no binding” and the binding (Myc-MARCH5^WT [1]) was “binds”. For the same substance, the binding (Myc-MARCH5^H43W) was “binds”.
